Laboratory results: paper PMC4349318
No constants are given. Whether binding was seen depends on the method and setting. In cells and extracts the contact can be indirect. Some results given as binding are weak or reduced against the parent protein; the word gives no strength.

Protein sequences, listed by entry. Tags and fused reporters are not part of them.
UniProt O96020: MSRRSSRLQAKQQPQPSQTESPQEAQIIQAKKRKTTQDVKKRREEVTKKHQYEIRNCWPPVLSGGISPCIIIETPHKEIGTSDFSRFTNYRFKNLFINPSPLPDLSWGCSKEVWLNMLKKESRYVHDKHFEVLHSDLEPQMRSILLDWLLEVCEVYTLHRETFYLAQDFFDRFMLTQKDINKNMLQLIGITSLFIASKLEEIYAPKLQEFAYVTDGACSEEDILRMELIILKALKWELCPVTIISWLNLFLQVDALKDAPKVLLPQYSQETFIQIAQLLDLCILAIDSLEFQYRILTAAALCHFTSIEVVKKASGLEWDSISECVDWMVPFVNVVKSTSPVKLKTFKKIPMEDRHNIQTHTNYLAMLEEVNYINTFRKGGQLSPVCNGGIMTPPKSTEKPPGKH
UniProt P24864: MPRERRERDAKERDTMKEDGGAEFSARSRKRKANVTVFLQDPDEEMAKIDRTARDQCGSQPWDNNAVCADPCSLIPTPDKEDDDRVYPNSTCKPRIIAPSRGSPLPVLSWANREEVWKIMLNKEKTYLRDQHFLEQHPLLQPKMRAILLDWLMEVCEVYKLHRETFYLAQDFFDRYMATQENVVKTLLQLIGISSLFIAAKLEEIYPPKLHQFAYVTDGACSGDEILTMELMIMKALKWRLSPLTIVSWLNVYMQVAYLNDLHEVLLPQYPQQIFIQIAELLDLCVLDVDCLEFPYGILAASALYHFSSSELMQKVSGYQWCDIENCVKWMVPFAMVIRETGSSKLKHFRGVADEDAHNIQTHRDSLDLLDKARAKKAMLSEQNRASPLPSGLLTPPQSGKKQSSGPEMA
UniProt Q13435: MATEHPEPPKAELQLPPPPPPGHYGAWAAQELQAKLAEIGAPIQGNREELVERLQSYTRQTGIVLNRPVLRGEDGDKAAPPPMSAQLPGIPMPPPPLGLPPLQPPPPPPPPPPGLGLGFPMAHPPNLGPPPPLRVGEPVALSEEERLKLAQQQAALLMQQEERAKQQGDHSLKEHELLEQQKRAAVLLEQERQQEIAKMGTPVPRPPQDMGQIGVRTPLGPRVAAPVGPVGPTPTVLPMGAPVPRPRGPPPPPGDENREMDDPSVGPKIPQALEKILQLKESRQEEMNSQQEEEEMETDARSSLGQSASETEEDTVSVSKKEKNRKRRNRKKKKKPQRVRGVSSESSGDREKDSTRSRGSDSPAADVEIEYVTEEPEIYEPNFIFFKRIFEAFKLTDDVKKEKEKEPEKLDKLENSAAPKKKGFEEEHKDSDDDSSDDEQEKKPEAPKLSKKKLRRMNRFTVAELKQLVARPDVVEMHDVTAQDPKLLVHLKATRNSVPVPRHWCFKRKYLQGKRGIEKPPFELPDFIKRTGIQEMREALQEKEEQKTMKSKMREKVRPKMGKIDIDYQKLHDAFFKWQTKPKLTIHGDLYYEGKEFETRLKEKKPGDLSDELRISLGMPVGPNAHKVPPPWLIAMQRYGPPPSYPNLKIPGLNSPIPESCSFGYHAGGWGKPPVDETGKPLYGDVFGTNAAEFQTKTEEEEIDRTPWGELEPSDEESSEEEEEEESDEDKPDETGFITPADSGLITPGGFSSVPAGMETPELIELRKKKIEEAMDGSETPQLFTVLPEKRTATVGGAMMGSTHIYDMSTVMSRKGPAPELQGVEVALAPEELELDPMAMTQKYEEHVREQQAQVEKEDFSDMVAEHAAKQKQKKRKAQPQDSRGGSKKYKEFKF
UniProt P38936: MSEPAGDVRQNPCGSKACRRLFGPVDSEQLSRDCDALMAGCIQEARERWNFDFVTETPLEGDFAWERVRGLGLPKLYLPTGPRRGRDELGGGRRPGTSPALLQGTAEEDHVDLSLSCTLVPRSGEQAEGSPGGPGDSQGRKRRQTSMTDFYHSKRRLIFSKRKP
UniProt P46527: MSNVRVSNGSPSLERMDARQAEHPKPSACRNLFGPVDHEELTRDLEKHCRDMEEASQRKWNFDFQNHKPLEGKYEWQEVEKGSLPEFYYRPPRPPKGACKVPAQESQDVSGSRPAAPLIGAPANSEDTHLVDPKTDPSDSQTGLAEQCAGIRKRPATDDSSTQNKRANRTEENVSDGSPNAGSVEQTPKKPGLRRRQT

Experiments:
[1] = target: cyclin E2 (human (endogenous in T-47D)) (UniProt O96020); experiment: co-IP; lysates of T-47D cells immunoprecipitated (cyclin E1 C-19, cyclin E2 Epitomics, CDK2 C-19, non-immune IgG) and western blotted with the indicated antibodies; endogenous proteins
[2] = target: cyclin E1 (human (endogenous in T-47D)) (UniProt P24864); experiment: as above
[3] = target: T1, NPAT (human (endogenous in T-47D)) (UniProt Q14207); experiment: proximity ligation; Duolink in situ Proximity Ligation Assay on PFA-fixed T-47D cells; detects two antibodies within 40 nm; foci counted from 10-15 cells per antibody pair; NPAT/αGST as negative control
T1 sequence: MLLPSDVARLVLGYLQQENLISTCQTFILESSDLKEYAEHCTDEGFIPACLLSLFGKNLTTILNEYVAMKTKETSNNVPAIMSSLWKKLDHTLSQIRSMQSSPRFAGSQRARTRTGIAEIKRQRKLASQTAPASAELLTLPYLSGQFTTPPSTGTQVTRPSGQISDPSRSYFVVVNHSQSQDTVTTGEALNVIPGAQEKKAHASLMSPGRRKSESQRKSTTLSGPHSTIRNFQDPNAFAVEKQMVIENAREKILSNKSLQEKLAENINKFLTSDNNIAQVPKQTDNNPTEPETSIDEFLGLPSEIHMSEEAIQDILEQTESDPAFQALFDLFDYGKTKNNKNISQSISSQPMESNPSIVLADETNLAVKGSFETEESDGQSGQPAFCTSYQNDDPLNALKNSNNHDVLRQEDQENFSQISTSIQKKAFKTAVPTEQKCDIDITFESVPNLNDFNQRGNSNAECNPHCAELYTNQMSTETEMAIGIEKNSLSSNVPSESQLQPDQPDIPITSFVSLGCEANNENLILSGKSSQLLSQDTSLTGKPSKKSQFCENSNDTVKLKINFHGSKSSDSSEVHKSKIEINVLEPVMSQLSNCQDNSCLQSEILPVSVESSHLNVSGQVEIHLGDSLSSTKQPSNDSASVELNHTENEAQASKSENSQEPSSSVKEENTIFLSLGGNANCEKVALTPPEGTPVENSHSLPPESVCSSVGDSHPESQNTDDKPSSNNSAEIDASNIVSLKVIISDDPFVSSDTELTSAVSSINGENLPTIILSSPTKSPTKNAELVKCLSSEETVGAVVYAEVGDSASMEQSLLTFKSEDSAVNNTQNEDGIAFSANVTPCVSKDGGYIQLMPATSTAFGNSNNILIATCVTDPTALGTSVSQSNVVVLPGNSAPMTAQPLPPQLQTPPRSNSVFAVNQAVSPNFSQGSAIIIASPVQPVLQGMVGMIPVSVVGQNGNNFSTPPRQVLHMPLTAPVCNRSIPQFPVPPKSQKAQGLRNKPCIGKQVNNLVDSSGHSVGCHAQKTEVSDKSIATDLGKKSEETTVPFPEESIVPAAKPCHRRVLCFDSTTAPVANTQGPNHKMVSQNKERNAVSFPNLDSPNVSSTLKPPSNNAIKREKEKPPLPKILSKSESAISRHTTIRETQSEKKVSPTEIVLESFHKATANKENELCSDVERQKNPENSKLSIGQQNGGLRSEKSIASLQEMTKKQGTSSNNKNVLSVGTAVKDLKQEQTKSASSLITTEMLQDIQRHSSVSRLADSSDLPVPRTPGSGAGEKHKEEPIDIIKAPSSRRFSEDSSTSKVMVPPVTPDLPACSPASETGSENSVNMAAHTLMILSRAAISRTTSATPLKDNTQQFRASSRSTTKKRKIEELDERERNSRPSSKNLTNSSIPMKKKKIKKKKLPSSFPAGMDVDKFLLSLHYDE

binding [1]	binding [2]	binding [3]	Substance
binds	binds	–	SAP 145 (from UniProt Q13435 1-895)
–	–	no binding	cyclin E1 (from UniProt P24864 1-410)
binds	–	–	p21^Waf1/Cip1 (from UniProt P38936 1-164)
binds	–	–	p27^Kip1 (from UniProt P46527 1-198)
